# Among all 220,000 compounds or so, about 2,300 (1%) were called active. Inconclusive results, whose numbers are uncertain, are shown with a selection of clear calls. Calls come from the whole dose curve; as a rule, active = well fitted inhibition curve with a large enough effect; inconclusive = small, poorly fitted or top-dose-only effect, or effect the other way; inactive = no such curve, though single readings can be large or run the other way. No potency is given beside an inconclusive call; the fits are too rough.
# Target: Neuropeptide S receptor (Homo sapiens) (UniProt Q6W5P4)
# Assay: qHTS Assay for Antagonists of the Neuropeptide S Receptor: cAMP Signal Transduction; note: nearly all actives have a fitted effect of over 50% in size
# Conditions: CHO-NPSR cells, cAMP TR-FRET, antagonist mode; activity change, negative = inhibition: at 38.3 µM (top of the series) unless noted
# % is set by controls: 0 for no effect and ±100 for the full control effect; potency is the fitted concentration of half-maximal effect; tags give direction and shape of the fitted curve.
# Sequence of UniProt Q6W5P4 (Q6W5P4 whole entry, looked up): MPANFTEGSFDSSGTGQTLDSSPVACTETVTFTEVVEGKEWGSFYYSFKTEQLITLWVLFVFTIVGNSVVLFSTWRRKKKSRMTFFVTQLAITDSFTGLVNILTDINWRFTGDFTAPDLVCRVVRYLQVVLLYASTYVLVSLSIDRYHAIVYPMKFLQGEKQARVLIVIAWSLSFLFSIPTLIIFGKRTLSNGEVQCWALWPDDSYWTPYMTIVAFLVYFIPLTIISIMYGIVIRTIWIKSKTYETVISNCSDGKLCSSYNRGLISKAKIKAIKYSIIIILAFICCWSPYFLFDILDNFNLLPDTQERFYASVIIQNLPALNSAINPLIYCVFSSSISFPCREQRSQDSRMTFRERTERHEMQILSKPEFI
Structure (SMILES),"activity change, negative = inhibition",Potency
COC(=O)/C(=C/c1cn(C)c2ccccc12)[N+](=O)[O-],inactive: -27.1% [at 46.1 µM],
COc1ccccc1N1CCN(C(=S)Nc2ccc3nc(N4CCOCC4)cc(C)c3c2)CC1,inactive: 0.47%,
COc1ccc(Cl)cc1NC(=O)CN(C)CC(=O)Nc1ccc(C)cc1Br,inactive: -48.5%,
CC(C)Cn1c(N)c(C(=O)COC(=O)CC23CC4CC(CC(C4)C2)C3)c(=O)n(C)c1=O,,"inconclusive [inhibitor, single point]"
Cc1ccc(C(=O)CSc2nc3ccccc3c(=O)n2-c2ccccc2)s1,,"inconclusive [activator, single point]"
COc1ccc(OC2C(=O)N(c3ccc(F)cc3)C2c2ccc(OC)c(OC)c2)cc1 (stereo not drawn),,"inconclusive [inhibitor, partial curve]"
CC1CCN(CC(O)COC2CCC(C(C)(C)C)CC2)CC1 (stereo not drawn),,"inconclusive [activator, full curve, poor fit]"
Cc1ccc(NC(=O)CSCC(=O)N2c3ccccc3CCc3ccccc32)cc1,,"inconclusive [inhibitor, single point]"
CN(C)c1ccc(P(=O)(OC2CCCCC2)C(O)c2ccncc2)cc1 (stereo not drawn),inactive: 27.5%,
COc1ccc(C(=O)Nc2nc3ccc(S(C)(=O)=O)cc3s2)cc1,,"inconclusive [activator, single point]"
CCCC1NC(=S)N(C2CCCCC2)C1=O (stereo not drawn),inactive: 3.52%,
CCC(=O)NC1=C(Cl)C(=O)C(NC(=O)CC)=C(Cl)C1=O,,"inconclusive [activator, single point]"
COc1ccc(/C=C2/NC(=O)N(Cc3ccccc3F)C2=O)cc1OC,inactive: 0.123%,
Cc1nc2c(-c3ccc(F)cc3)c(C)nn2c(C)c1CCC(=O)Nc1ccccc1,inactive: -18.5%,
Cc1nc2cc(N3CCCCC3)c(NC(=O)c3cccnc3)cc2c(=O)n1Cc1ccccc1,,"inconclusive [inhibitor, single point]"
CC1CCCN(C(=O)c2ccc(COc3ccccc3Br)cc2)C1 (stereo not drawn),,"inconclusive [inhibitor, single point]"
O=C(NC1CCCCC1)N(Cc1ccccc1)Cc1ccco1,,"inconclusive [activator, partial curve]"
CCOC(=O)c1c(C)[nH]c(C(=O)COC(=O)C23CC4CC(CC(Cl)(C4)C2)C3)c1C,,"inconclusive [inhibitor, single point]"
CCCCn1c(SCC(=O)Nc2cccc(OC)c2)nc2ccc(N3CCOCC3)cc2c1=O,,"inconclusive [inhibitor, single point]"
C/C=C/COC(=O)c1[nH]c2c(c1C)C(=O)CC(c1ccco1)C2 (stereo not drawn),inactive: -4.73%,
Cc1ccc(C)c(NS(=O)(=O)c2cc(C(=O)Nc3ccccc3-c3ccccc3)ccc2C)c1,,"inconclusive [inhibitor, full curve, poor fit]"
Cc1cc(Nc2c(C)n(C)n(-c3ccccc3)c2=O)n2c(nc3cc(F)c(F)cc32)c1C#N,inactive: -0.411%,
O=C(CCCc1nc2ccccc2s1)NCc1ccccc1F,inactive: 0.19%,
COC(=O)c1sccc1NC(=O)Cn1nnc(-c2ccc(C)cc2)n1,,"inconclusive [inhibitor, partial curve]"
N#Cc1nc(COc2ccccc2)oc1N1CCCCC1,,"inconclusive [inhibitor, single point]"

Structure (SMILES),"activity change, negative = inhibition",Potency
O=C(CNc1cccc2ccccc12)N/N=C/C(Br)=C/c1ccccc1,,"inconclusive [inhibitor, partial curve]"
Nc1nc(COc2ccc3ccccc3c2)cs1,,"inconclusive [activator, partial curve]"
CCOC(=O)C1=NNC2(c3ccc(Cl)cc3)C(=O)N(c3cc(C)cc(C)c3)C(=O)C12 (stereo not drawn),,"inconclusive [inhibitor, partial curve]"
COC(=O)c1ccc(COc2ccccc2/C=N/NS(=O)(=O)c2ccc(C)cc2)cc1,,"inconclusive [inhibitor, single point]"
CCOC(=O)C1=C(Cn2cnc3ccccc32)NC(=O)NC1c1ccc(Cl)cc1 (stereo not drawn),,"inconclusive [inhibitor, single point]"
CCCC(=O)c1ccc(N2CCN(C(=O)c3ccccc3Br)CC2)c(F)c1,,"inconclusive [inhibitor, single point]"
C/C(=N\NC(=O)c1cccc(N/N=C(\C)c2ccco2)c1)c1ccco1,inactive: -10.7%,
COc1cccc(CNC(=O)CCC2CCCN(C(=O)c3cccc(Cl)c3)C2)c1 (stereo not drawn),inactive: 12.6%,
c1ccc(-c2nc3c(ccc4ccccc43)[nH]2)nc1,,"inconclusive [activator, full curve, poor fit]"
COc1ccc(CC(=O)Nc2ccc(-c3nnc(-c4ccccc4)o3)cc2)cc1OC,,"inconclusive [activator, single point]"
CCc1ccc2[nH]c(=O)c(CN(Cc3ccccc3OC)Cc3nnnn3Cc3ccco3)cc2c1,,"inconclusive [inhibitor, partial curve]"
COc1ccc(-c2cc(C(=O)O)no2)cc1,inactive: -10.4%,
N#C/C(=C\c1cccn1-c1ccccc1)C(=O)NC1CCCCC1,,"inconclusive [inhibitor, single point]"
O=[N+]([O-])c1ccc(N2CCCC2)cc1NCc1ccccc1,,"inconclusive [inhibitor, single point]"
COc1cccc(C2CCCN2Cc2nc(-c3sccc3C)oc2C)c1 (stereo not drawn),inactive: 51%,
c1csc(-c2nc(-c3ccncc3)no2)c1,,"inconclusive [inhibitor, single point]"
CC(=O)Nc1ccc(S(=O)(=O)N2CCN(c3nc(NC4CCCC4)c4ccccc4n3)CC2)cc1,,"inconclusive [inhibitor, partial curve]"
COC(=O)C1=C(COc2ccc(C=O)cc2OC)NC(=O)NC1c1cc(C)ccc1C (stereo not drawn),inactive: -2.54%,
O=C(Nc1nccs1)c1ccccn1,inactive: 5.26%,
COc1ccc(-n2ncc3c(NCc4cccs4)ncnc32)cc1,,"inconclusive [inhibitor, partial curve, poor fit]"
O=S(=O)(Nc1cccc(S(=O)(=O)N2CCCCCC2)c1)c1ccccc1,inactive: -2.14%,
CC1(CC(=O)N/N=C/c2cc(Br)c(O)cc2O)OCCO1,inactive: -9.3% [at 46.1 µM],
COCCCn1c(SCC(=O)NC2CCCC2)nnc1-c1ccco1,inactive: -6.3% [at 46.1 µM],
O=[N+]([O-])c1cccc(S(=O)(=O)Nc2nc3ccccc3nc2Nc2cccc(S(=O)(=O)N3CCCCC3)c2)c1,,active: 6.31 µM
CCN(CC)C(=O)Cn1c(=O)n(-c2ccccc2)c(=O)c2sccc21,inactive: 9.3%,

Structure (SMILES),"activity change, negative = inhibition",Potency
O=C(COC(=O)CCc1nc2ccccc2n1-c1ccccc1)Nc1ccc(N2CCCCC2)cc1,,"inconclusive [inhibitor, single point]"
CCOC(=O)c1sc(Nc2nc3c(OC)cccc3s2)nc1C,,"inconclusive [inhibitor, single point]"
CCOC(=O)c1ccc(N=c2scc(C)n2CC)cc1,inactive: -25.1%,
O=C(Nc1cccn(Cc2c(Cl)cccc2Cl)c1=O)c1ccc(Cl)cc1Cl,,"inconclusive [inhibitor, single point]"
O=C(Nc1ccccc1C(=O)NC1CCCCC1)c1ccco1,,"inconclusive [inhibitor, single point]"
COc1cc(C2NC(=O)NC(C)=C2C(=O)OC(C)C)ccc1OC(=O)c1ccco1 (stereo not drawn),inactive: 0.429%,
Cc1nc(NC(=O)c2csc3ccccc23)sc1C,,"inconclusive [inhibitor, single point]"
COc1ccc2nc(NNC(=O)c3cc(=O)c4ccccc4o3)sc2c1,inactive: -6.43%,
O=C(c1cc2ccccn2n1)N1CCCC1,inactive: -11.8% [at 46.1 µM],
CNC(=S)/N=C(\Nc1ccc(C)cc1)c1ccccc1,inactive: -12.6%,
CCCCNC(=O)CN1CCC2(O)CCCCC2C1c1ccccc1OC (stereo not drawn),,"inconclusive [inhibitor, partial curve]"
CN1CCSc2ccc(C(=O)Nc3ccc(Cl)cc3)cc21,,"inconclusive [inhibitor, single point]"
CC(=O)Nc1ccc(-c2cc(-c3ccccc3)nc(-c3ccccc3)n2)cc1,,"inconclusive [inhibitor, single point]"
O=S(=O)(c1cccs1)N1CN(Cc2cccs2)c2nc3ccccc3nc21,,"inconclusive [inhibitor, single point]"
COc1ccc(-n2c(SCC(=O)Nc3cc(C)on3)nc3c([nH]c4ccccc43)c2=O)cc1,,"inconclusive [activator, partial curve]"
CC/C(=C\C(=O)c1ccncc1)Nc1ccc(Br)cc1,,"inconclusive [inhibitor, partial curve]"
CCCCNC(=O)Cc1coc2ccc3ccccc3c12,inactive: -14.7% [at 46.1 µM],
COc1ccc(CCNc2nc(C)nc3c2oc2ccccc23)cc1OC,inactive: -28.8% [at 46.1 µM],
Cc1ccc(-c2nnc3n2N=C(c2ccccc2Br)CS3)cc1,,"inconclusive [inhibitor, partial curve]"
O=c1c2ccccc2nc(SCc2cn3ccsc3n2)n1-c1ccc(F)cc1,,"inconclusive [inhibitor, partial curve, poor fit]"
O=C(O)CCCC(=O)Nc1ccc(N2CCCC2)cc1,,"inconclusive [inhibitor, partial curve]"
Cc1ccccc1OCc1n[nH]c(=S)n1Cc1ccccc1,inactive: 5.05%,
O=[N+]([O-])c1cc(Br)c(O)c(/C=N/Nc2nnnn2-c2cccc3ccccc23)c1,,"inconclusive [inhibitor, single point]"

# From PubChem BioAssay AID1461 (National Center for Advancing Translational Sciences (NCATS), 2008)
